Experimental findings from PMC9350387, “Synthetic α‐Helical Peptides as Potential Inhibitors of the ACE2 SARS‐CoV‐2 Interaction” (Chembiochem, 2022) are described below.

Non-standard residues stand in square brackets, D forms with d. Residues, ends and D or L forms follow the SMILES beside them. β3hD = NC(CC(=O)O)CC(=O)O

This assay addresses receptor binding domain (RBD) of Spike from wildtype SARS‐CoV‐2 (2019‐nCoV) (Severe acute respiratory syndrome coronavirus 2, UniProt P0DTC2). The experiment in a line: biochemical. The conditions noted are these: dash = signal-to-noise below threshold for a binding event, read-out: KD, dissociation constant on SARS‐CoV‐2 spike‐RBD.

The term Kd denotes the equilibrium constant for the complex coming apart. On to `CC(=O)N[C@@H](CC(=O)O)CC(=O)N1C[C@H]2/C=C\[C@@H]3CC[C@@H](C(=O)N[C@@H](CCC(=O)O)C(=O)N[C@@H](CCC(N)=O)C(=O)N[C@@H](C)C(=O)N[C@@H](CCCCN)C(=O)N[C@H](C(=O)N[C@@H](Cc4ccccc4)C(=O)N[C@@H](CC(C)C)C(=O)N[C@@H](CC(=O)O)C(=O)N[C@@H](CCCCN)C(=O)N[C@@H](Cc4ccccc4)C(=O)N[C@@H](CC(N)=O)C(=O)N[C@@H](Cc4c[nH]cn4)C(=O)N[C@@H](CCC(=O)O)C(=O)N[C@@H](C)C(=O)N[C@@H](CCC(=O)O)C(=O)N[C@@H](CC(=O)O)C(=O)N[C@@H](CC(C)C)C(=O)N[C@@H](Cc4ccccc4)C(=O)N[C@@H](Cc4ccc(O)cc4)C(=O)N[C@@H](CCC(N)=O)C(=O)N[C@@H](CCCCN)C(N)=O)[C@@H](C)O)N3C(=O)[C@@H]1C2` [P‐2‐1], for which the Kd turned out to be 1210 ± 360 nM. In the case of `CC(=O)N[C@@H](CC(=O)O)CC(=O)N1CCC[C@H]1C(=O)N1CCC[C@H]1C(=O)N[C@@H](CCC(=O)O)C(=O)N[C@@H](CCC(N)=O)C(=O)N[C@@H](C)C(=O)N[C@@H](CCCCN)C(=O)N[C@H](C(=O)N[C@@H](Cc1ccccc1)C(=O)N[C@@H](CC(C)C)C(=O)N[C@@H](CC(=O)O)C(=O)N[C@@H](CCCCN)C(=O)N[C@@H](Cc1ccccc1)C(=O)N[C@@H](CC(N)=O)C(=O)N[C@@H](Cc1c[nH]cn1)C(=O)N[C@@H](CCC(=O)O)C(=O)N[C@@H](C)C(=O)N[C@@H](CCC(=O)O)C(=O)N[C@@H](CC(=O)O)C(=O)N[C@@H](CC(C)C)C(=O)N[C@@H](Cc1ccccc1)C(=O)N[C@@H](Cc1ccc(O)cc1)C(=O)N[C@@H](CCC(N)=O)C(=O)N[C@@H](CCCCN)C(N)=O)[C@@H](C)O` [P‐2‐2] (Ac-[β3hD]PPEQAKTFLDKFNHEAEDLFYQK-NH2) it was 62 ± 17 nM.
